{"source": "the supplement of paper PMC12423691", "binders": {"B1": {"name": "TRAF2, Q12933 (protein)", "chain": "MAAASVTPPGSLELLQPGFSKTLLGTKLEAKYLCSACRNVLRRPFQAQCGHRYCSFCLASILSSGPQNCAACVHEGIYEEGISILESSSAFPDNAARREVESLPAVCPSDGCTWKGTLKEYESCHEGRCPLMLTECPACKGLVRLGEKERHLEHECPERSLSCRHCRAPCCGADVKAHHEVCPKFPLTCDGCGKKKIPREKFQDHVKTCGKCRVPCRFHAIGCLETVEGEKQQEHEVQWLREHLAMLLSSVLEAKPLLGDQSHAGSELLQRCESLEKKTATFENIVCVLNREVERVAMTAEACSRQHRLDQDKIEALSSKVQQLERSIGLKDLAMADLEQKVLEMEASTYDGVFIWKISDFARKRQEAVAGRIPAIFSPAFYTSRYGYKMCLRIYLNGDGTGRGTHLSLFFVVMKGPNDALLRWPFNQKVTLMLLDQNNREHVIDAFRPDVTSSSFQRPVNDMNIASGCPLFCPVSKMEAKNSYVRDDAIFIKAIVDLTGL"}, "B2": {"name": "CSRNP1, Q96S65 (protein)", "chain": "MTGLLKRKFDQLDEDNSSVSSSSSSSGCQSRSCSPSSSVSRAWDSEEEGPWDQMPLPDRDFCGPRSFTPLSILKRARRERPGRVAFDGITVFYFPRCQGFTSVPSRGGCTLGMALRHSACRRFSLAEFAQEQARARHEKLRQRLKEEKLEMLQWKLSAAGVPQAEAGLPPVVDAIDDASVEEDLAVAVAGGRLEEVSFLQPYPARRRRALLRASGVRRIDREEKRELQALRQSREDCGCHCDRICDPETCSCSLAGIKCQMDHTAFPCGCCREGCENPMGRVEFNQARVQTHFIHTLTRLQLEQEAESFRELEAPAQGSPPSPGEEALVPTFPLAKPPMNNELGDNSCSSDMTDSSTASSSASGTSEAPDCPTHPGLPGPGFQPGVDDDSLARILSFSDSDFGGEEEEEEEGSVGNLDNLSCFHPADIFGTSDPGGLASWTHSYSGCSFTSGVLDENANLDASCFLNGGLEGSREGSLPGTSVPPSMDAGRSSSVDLSLSSCDSFELLQALPDYSLGPHYTSQKVSDSLDNIEAPHFPLPGLSPPGDASSCFLESLMGFSEPAAEALDPFIDSQFEDTVPASLMEPVPV"}, "B3": {"name": "ZNF41, P51814 (protein)", "chain": "MAANGDSPPWSPALAAEGRGSSCEVRRERTPEARIHSVKRYPDLSPGPKGRSSADHAALNSIVSLQASVSFEDVTVDFSKEEWQHLDPAQRRLYWDVTLENYSHLLSVGYQIPKSEAAFKLEQGEGPWMLEGEAPHQSCSGEAIGKMQQQGIPGGIFFHCERFDQPIGEDSLCSILEELWQDNDQLEQRQENQNNLLSHVKVLIKERGYEHKNIEKIIHVTTKLVPSIKRLHNCDTILKHTLNSHNHNRNSATKNLGKIFGNGNNFPHSPSSTKNENAKTGANSCEHDHYEKHLSHKQAPTHHQKIHPEEKLYVCTECVMGFTQKSHLFEHQRIHAGEKSRECDKSNKVFPQKPQVDVHPSVYTGEKPYLCTQCGKVFTLKSNLITHQKIHTGQKPYKCSECGKAFFQRSDLFRHLRIHTGEKPYECSECGKGFSQNSDLSIHQKTHTGEKHYECNECGKAFTRKSALRMHQRIHTGEKPYVCADCGKAFIQKSHFNTHQRIHTGEKPYECSDCGKSFTKKSQLHVHQRIHTGEKPYICTECGKVFTHRTNLTTHQKTHTGEKPYMCAECGKAFTDQSNLIKHQKTHTGEKPYKCNGCGKAFIWKSRLKIHQKSHIGERHYECKDCGKAFIQKSTLSVHQRIHTGEKPYVCPECGKAFIQKSHFIAHHRIHTGEKPYECSDCGKCFTKKSQLRVHQKIHTGEKPNICAECGKAFTDRSNLITHQKIHTREKPYECGDCGKTFTWKSRLNIHQKSHTGERHYECSKCGKAFIQKATLSMHQIIHTGKKPYACTECQKAFTDRSNLIKHQKMHSGEKRYKASD"}, "B4": {"name": "MYF6, P23409 (protein)", "chain": "MMMDLFETGSYFFYLDGENVTLQPLEVAEGSPLYPGSDGTLSPCQDQMPPEAGSDSSGEEHVLAPPGLQPPHCPGQCLIWACKTCKRKSAPTDRRKAATLRERRRLKKINEAFEALKRRTVANPNQRLPKVEILRSAISYIERLQDLLHRLDQQEKMQELGVDPFSYRPKQENLEGADFLRTCSSQWPSVSDHSRGLVITAKEGGASIDSSASSSLRCLSSIVDSISSEERKLPCVEEVVEK"}, "B5": {"name": "FOXL1, Q12952 (protein)", "chain": "MSHLFDPRLPALAASPMLYLYGPERPGLPLAFAPAAALAASGRAETPQKPPYSYIALIAMAIQDAPEQRVTLNGIYQFIMDRFPFYHDNRQGWQNSIRHNLSLNDCFVKVPREKGRPGKGSYWTLDPRCLDMFENGNYRRRKRKPKPGPGAPEAKRPRAETHQRSAEAQPEAGSGAGGSGPAISRLQAAPAGPSPLLDGPSPPAPLHWPGTASPNEDAGDAAQGAAAVAVGQAARTGDGPGSPLRPASRSSPKSSDKSKSFSIDSILAGKQGQKPPSGDELLGGAKPGPGGRLGASLLAASSSLRPPFNASLMLDPHVQGGFYQLGIPFLSYFPLQVPDTVLHFQ"}, "B6": {"name": "PPARG, P37231 (protein)", "chain": "MGETLGDSPIDPESDSFTDTLSANISQEMTMVDTEMPFWPTNFGISSVDLSVMEDHSHSFDIKPFTTVDFSSISTPHYEDIPFTRTDPVVADYKYDLKLQEYQSAIKVEPASPPYYSEKTQLYNKPHEEPSNSLMAIECRVCGDKASGFHYGVHACEGCKGFFRRTIRLKLIYDRCDLNCRIHKKSRNKCQYCRFQKCLAVGMSHNAIRFGRMPQAEKEKLLAEISSDIDQLNPESADLRALAKHLYDSYIKSFPLTKAKARAILTGKTTDKSPFVIYDMNSLMMGEDKIKFKHITPLQEQSKEVAIRIFQGCQFRSVEAVQEITEYAKSIPGFVNLDLNDQVTLLKYGVHEIIYTMLASLMNKDGVLISEGQGFMTREFLKSLRKPFGDFMEPKFEFAVKFNALELDDSDLAIFIAVIILSGDRPGLLNVKPIEDIQDNLLQALELQLKLNHPESSQLFAKLLQKMTDLRQIVTEHVQLLQVIKKTETDMSLHPLLQEIYKDLY"}, "B7": {"name": "TULP4, Q9NRJ4 (protein)", "chain": "MYAAVEHGPVLCSDSNILCLSWKGRVPKSEKEKPVCRRRYYEEGWLATGNGRGVVGVTFTSSHCRRDRSTPQRINFNLRGHNSEVVLVRWNEPYQKLATCDADGGIFVWIQYEGRWSVELVNDRGAQVSDFTWSHDGTQALISYRDGFVLVGSVSGQRHWSSEINLESQITCGIWTPDDQQVLFGTADGQVIVMDCHGRMLAHVLLHESDGVLGMSWNYPIFLVEDSSESDTDSDDYAPPQDGPAAYPIPVQNIKPLLTVSFTSGDISLMNNYDDLSPTVIRSGLKEVVAQWCTQGDLLAVAGMERQTQLGELPNGPLLKSAMVKFYNVRGEHIFTLDTLVQRPIISICWGHRDSRLLMASGPALYVVRVEHRVSSLQLLCQQAIASTLREDKDVSKLTLPPRLCSYLSTAFIPTIKPPIPDPNNMRDFVSYPSAGNERLHCTMKRTEDDPEVGGPCYTLYLEYLGGLVPILKGRRISKLRPEFVIMDPRTDSKPDEIYGNSLISTVIDSCNCSDSSDIELSDDWAAKKSPKISRASKSPKLPRISIEARKSPKLPRAAQELSRSPRLPLRKPSVGSPSLTRREFPFEDITQHNYLAQVTSNIWGTKFKIVGLAAFLPTNLGAVIYKTSLLHLQPRQMTIYLPEVRKISMDYINLPVFNPNVFSEDEDDLPVTGASGVPENSPPCTVNIPIAPIHSSAQAMSPTQSIGLVQSLLANQNVQLDVLTNQTTAVGTAEHAGDSATQYPVSNRYSNPGQVIFGSVEMGRIIQNPPPLSLPPPPQGPMQLSTVGHGDRDHEHLQKSAKALRPTPQLAAEGDAVVFSAPQEVQVTKINPPPPYPGTIPAAPTTAAPPPPLPPPQPPVDVCLKKGDFSLYPTSVHYQTPLGYERITTFDSSGNVEEVCRPRTRMLCSQNTYTLPGPGSSATLRLTATEKKVPQPCSSATLNRLTVPRYSIPTGDPPPYPEIASQLAQGRGAAQRSDNSLIHATLRRNNREATLKMAQLADSPRAPLQPLAKSKGGPGGVVTQLPARPPPALYTCSQCSGTGPSSQPGASLAHTASASPLASQSSYSLLSPPDSARDRTDYVNSAFTEDEALSQHCQLEKPLRHPPLPEAAVTLKRPPPYQWDPMLGEDVWVPQERTAQTSGPNPLKLSSLMLSQGQHLDVSRLPFISPKSPASPTATFQTGYGMGVPYPGSYNNPPLPGVQAPCSPKDALSPTQFAQQEPAVVLQPLYPPSLSYCTLPPMYPGSSTCSSLQLPPVALHPWSSYSACPPMQNPQGTLPPKPHLVVEKPLVSPPPADLQSHLGTEVMVETADNFQEVLSLTESPVPQRTEKFGKKNRKRLDSRAEEGSVQAITEGKVKKEARTLSDFNSLISSPHLGREKKKVKSQKDQLKSKKLNKTNEFQDSSESEPELFISGDELMNQSQGSRKGWKSKRSPRAAGELEEAKCRRASEKEDGRLGSQGFVYVMANKQPLWNEATQVYQLDFGGRVTQESAKNFQIELEGRQVMQFGRIDGSAYILDFQYPFSAVQAFAVALANVTQRLK"}, "B8": {"name": "PGBD1, Q96JS3 (protein)", "chain": "MYEALPGPAPENEDGLVKVKEEDPTWEQVCNSQEGSSHTQEICRLRFRHFCYQEAHGPQEALAQLRELCHQWLRPEMHTKEQIMELLVLEQFLTILPKELQPCVKTYPLESGEEAVTVLENLETGSGDTGQQASVYIQGQDMHPMVAEYQGVSLECQSLQLLPGITTLKCEPPQRPQGNPQEVSGPVPHGSAHLQEKNPRDKAVVPVFNPVRSQTLVKTEEETAQAVAAEKWSHLSLTRRNLCGNSAQETVMSLSPMTEEIVTKDRLFKAKQETSEEMEQSGEASGKPNRECAPQIPCSTPIATERTVAHLNTLKDRHPGDLWARMHISSLEYAAGDITRKGRKKDKARVSELLQGLSFSGDSDVEKDNEPEIQPAQKKLKVSCFPEKSWTKRDIKPNFPSWSALDSGLLNLKSEKLNPVELFELFFDDETFNLIVNETNNYASQKNVSLEVTVQEMRCVFGVLLLSGFMRHPRREMYWEVSDTDQNLVRDAIRRDRFELIFSNLHFADNGHLDQKDKFTKLRPLIKQMNKNFLLYAPLEEYYCFDKSMCECFDSDQFLNGKPIRIGYKIWCGTTTQGYLVWFEPYQEESTMKVDEDPDLGLGGNLVMNFADVLLERGQYPYHLCFDSFFTSVKLLSALKKKGVRATGTIRENRTEKCPLMNVEHMKKMKRGYFDFRIEENNEIILCRWYGDGIISLCSNAVGIEPVNEVSCCDADNEEIPQISQPSIVKVYDECKEGVAKMDQIISKYRVRIRSKKWYSILVSYMIDVAMNNAWQLHRACNPGASLDPLDFRRFVAHFYLEHNAHLSD"}}, "note": "The list shows a part of the results. Binding of human transcription factors and regulators to the viral nucleoprotein by AlphaScreen, crude cell-free proteins, amounts not normalised, one pass. Fold of the Venus control; higher = more signal. No active / inactive call. Single-pass screen; sequences are the whole Swiss-Prot entries looked up by name.", "data": [{"molecular_target": "nucleoprotein N of Crimean-Congo hemorrhagic fever virus", "assay": "AlphaScreen luminescence signal relative to Venus negative control (fold); higher = stronger binding to CCHFV N", "procedure": "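AlphaScreen binding of cell-free made, FLAG-GST-tagged human transcription factors and regulators (crude translation products) to biotinylated N protein; signal as fold of the FLAG-GST-Venus control. One pass.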", "values": [{"binder": "B1", "AlphaScreen luminescence signal": 1.67}, {"binder": "B2", "AlphaScreen luminescence signal": 4.84}, {"binder": "B3", "AlphaScreen luminescence signal": 3.07}, {"binder": "B4", "AlphaScreen luminescence signal": 2.28}, {"binder": "B5", "AlphaScreen luminescence signal": 1.49}, {"binder": "B6", "AlphaScreen luminescence signal": 1.95}, {"binder": "B7", "AlphaScreen luminescence signal": 2.93}, {"binder": "B8", "AlphaScreen luminescence signal": 1.72}]}]}
